In the supplement of paper PMC11417369:
The other results are listed elsewhere or left out.

test system: PfAP2-HC AP2 domain (GST-tagged); test: gcPBM binding intensity (ln(normalized median fluorescence intensity)); higher = stronger DNA binding
Summary of the method: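 Binding intensity is the highest Masliner-normalised natural-log median intensity over replicate spots in either probe orientation. To obtain it, GST-tagged P. falciparum DNA-binding domains made in E. coli were incubated for 1 h on an Agilent 4 × 180k array of primer-extended double-stranded 36-bp intergenic genomic probes plus negative controls. Detection used Alexa488 anti-GST antibody with scanning at 488 nm.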

Sequence	gcPBM binding intensity (ln)
TAATAAATAAAATATGCACACAAATATAGGAAACAA [CACACA_site8820]	9.99
ATATATATAATATAATGTACGTATAATAATATGAGA [XGTACX_site2282]	9.96
CGTTATATATATAAAAGTACAAAAATTAAACATTCC [XGTACX_site4568]	9.71
ATATGTAAATAAATATGTACTCATTTATTATTTTAT [XGTACX_site8748]	9.71
ATATTTTATGTGTTGGTGCACATCTTTATTTAAACT [GTGCAC_site9736]	9.89
ATATGTATATTTTTTTGTACGTATTTATGTGTGTGT [XGTACX_site2093]	10.6
ATATATACAAGTATTTTTTTTTCAAACATTATTTTT [CACACA_negctrl_site1808]	9.68
ATATATGAGCAAAAATATATAAGATAACACATAAAT [CACACA_negctrl_site167]	9.93
TTATATATATATTATAGTACATATATAATATAGTAA [XGTACX_site6869]	9.56
TCTCTATAAATAAATACATGCATATAATAAAGAATT [TGCATGCA_site710]	9.6
ATTTTTTTTATTTTTTCAATATATATATATATATAT [CACACA_negctrl_site1444]	9.74
GAAATAGAAATAAAATAGGCATACAATAGAACTAAG [TGCATGCA_negctrl_site537]	10
TTATATATATATAATACACACATAATAATATATTTA [CACACA_site3038]	9.63
TATTTTACAAAATAAGGTACGTAAATATATGGTAGG [XGTACX_site2133]	9.68
AAATATCTTTTATATTGTACATATTCCTTATGTGGA [XGTACX_site7638]	9.44
TATTTAAAAATATATACACACATTTTATATTATTAT [CACACA_site781]	9.81
CCTTATTATTATTTTACACACGTCCTAATAAGAGGA [CACACA_site1319]	9.62
AATATATAAATAAATACACACATAAAATAGAAATAT [CACACA_site1663]	10.2
AAAAACAAAAAAGAAGCACACATATATATATATATA [CACACA_site8779]	10.4
TTTATCTGATATATTACACACAAAAAAAAAAAAAAA [CACACA_site7637]	9.5
AATATTATATATATGGGTACTAATTCCTTTAATTTC [XGTACX_site102]	9.56
TTTTTTTAAACTGAAAGTACTTATTCCAAGAAAATA [XGTACX_site50]	9.15

Sequence	gcPBM binding intensity (ln)
ATATATATATCAACAACACACGATTAACTAAAAAAA [CACACA_site302]	9.94
ATAATGACTAAATTTAAACACACAAGGGGAGTTTAC [CACACA_site8209]	9.76
AAAACAAATGAGTACACACACATAAAAGTTGAAAAT [CACACA_site6238]	10.7
CGCACAAAAATATACACACACACATCTATATTTATT [CACACA_site7675]	10.4
TACCCATATTAATATGTGCGCATATAAAAGTCAAAC	9.72
GCATAAGAAATAAATAGTACACACATAGACACACAC [XGTACX_site3095]	11.3
TATATATATATATACACACACATATATATATATATA [CACACA_site1346]	9.76
ATAAGATATGTATATACACACATTTATTTACATATA [CACACA_site3263]	9.88
ATCATATATGTTATTACACACGTTATGTTATTATAA [CACACA_site2712]	9.85
TTAATTTCAAGTAGAAGTACTTTTATGATTGTGAGG [XGTACX_site1247]	9.46
GTGCATAGATGATATACACACAATATAATAGTATGT [CACACA_site5373]	9.83
TATAATTTAGCTTGTGCATGCAGGTGCTACATTTGT [TGCATGCA_site217]	9.76
TTTTCGGATAATAATTGTACGAAACATTTAAAAAAA [XGTACX_site8898]	9.22
TTGTAAGAAAAACACACACACACATATATATATATA [CACACA_site795]	10.3
TATATAATATATATATGTACACATATACATTTTTAT [XGTACX_site2832]	9.87
TAAATAGTTATAAAAGTGCAAAAAAAAAAAAAAAAA [GTGCAC_site9550]	9.1
ACTCAAAATTATAATTGTACAAATGCTTTGTTTAAT [XGTACX_site3437]	9.77
ACATTATATCTAAGTACACACATTAATTTTTTTTTT [CACACA_site7850]	9.79
CTATAACCTCTGTTCACACATATATCATAATTTACA [CACACA_site5446]	9.79
TTTATTTTGATTTAATGTACAAATAGTAAAACAAAA [XGTACX_site4789]	9.24
TATTTAAAAGCATATACACACAACTGGAATGAAAAG [CACACA_site6128]	10.1
GTTTCAAAATTAAACACACACAAAAAAAAAAAAAAA [CACACA_site2680]	9.72
